A collection of fitness landscapes (doi:10.1016/j.celrep.2020.107928)
Over roughly 81,000 sequences, “one-hybrid fitness for binding parS DNA” has its median near -0.17; the highest 2% begin near 0.51. This is one part of the list.

B1: Caulobacter ParB omega fusion; a variant is named by its letters at X, in order, B8GW30 (parent)
chain: MESVVVGEPGMSEGRRGLGRGLSALLGEVDAAPAQAPGEQLGGSREAPIEILQRNPDQPRRTFREEDLEDLSNSIREKGVLQPILVRPSPDTAGEYQIVAGERAWRAAQRAGLKTVPIMVRELDDLAVLEIGIIENVQRADLNVLEEALSYKVLMEKFERTQENIAQTIGKSXSHVANXMRLLXLPDEVQSYLVSGELTAXHARAIAAAADPVALAKQIIEGGLSVRETEALARKAPNLSAGKSKGGRPPRVKDTDTQALESDLSSVLGLDVSIDHRGSTGTLTITYATLEQLDDLCNRLTRGI

Variants of: B1
Assay: one-hybrid fitness for binding parS DNA (scaled: cognate 1, non-cognate 0); higher = stronger binding
Conditions: with parS DNA site
Summary of the method: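 Fitness is the rescaled log change in variant-to-wild-type read ratio, measured by Illumina sequencing of plasmids before and after bacterial one-hybrid selection. The scale puts cognate at 1 and non-cognate at 0. Selection of Caulobacter ParB libraries, four specificity codons randomised, took place in E. coli USO with a HIS3 reporter, site 19 bp from the promoter, over 48 hours at 37°C on M9-minus-histidine with 0.1 mM IPTG and 5 mM 3-AT.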

one-hybrid fitness for binding parS DNA, 0.976:
RHYS

one-hybrid fitness for binding parS DNA, 0.372:
RLLM

one-hybrid fitness for binding parS DNA, 0.263:
LTCP

one-hybrid fitness for binding parS DNA, 1:
RSNG

one-hybrid fitness for binding parS DNA, 0.834:
RKNA

one-hybrid fitness for binding parS DNA, 0.368:
HRHS

one-hybrid fitness for binding parS DNA, 0.237:
RACW

one-hybrid fitness for binding parS DNA, ≤ 0.2:
LVTS
QLSC
DPPM
PIHS
VLHC
QRWR
GDQG
YLHG
TKQT
SVIG
RQPM
NPVN
SSTP
KQPM
PSLT
HCDC
TRTR
PGTL
MMNG
YDLT
AYVS
SRKD
TRRY
TTNT
KHGY
YLFW
AAQF
NLRI
PSLS
PMRW
KRKQ
IISN
PCHV
IAKG
KVLL
EAYS
FVHN
TMHC
ELEL
LINT
RYGL
QFAE
CVET
MGKP
EGLR
YYND
MENT
QCED
NEVR
LYKT
QSRI
GDTS
QMQR
TWAL
GDEL
RVKE
HVGG
RKQQ
IMGG
WSNG
NYSQ
GPMW
WFAY
KLYW
IWKR
SEMT
HCHT
PVNF
IIRR
QVDY
TAPG
SFAC
QFAW
TARL
HTSW
ERGS
QRTH
EVWI
MKYS
DINW
SRYG
LPWG
CPCR
PAKW
YKAA
QCSN
QISY
PQTP
LHAV
HYCG
EKGS
NSCR
LHRL
QAEI
GQTS
NWSC
SSPV
RYKP
GLSR
PIAQ
QTGE
EFPY
WERL
PGCR
LYKH
HISM
RNAR
NVTM
VNRM
RSMD
HQYT
EATE
WWTD
LPVS
IVEA
KRWG
QSVF
TPTD
IAIS
PHYS
WLQR
VRKF
WIGT
KYKR
TRHN
KPSF
SINQ
DNQE
ILTM
TLFV
TRYM
QAHC
FQDG
RSSD
APHC
CGTN
VATK
DNRT
GNTQ
HDKR
RLHP
HVVE
TGGR
TIWG
HQSR
VTMW
YSVV
KCSD
SKPM
QHKG
HEHR
TGID
MGLM
HQLL
DPAM
SLSW
RCHR
VFKS
AVNH
HPCK
HAPI
KEIA
VLHT
TAQP
SADW
KIAC
QVMS
DTTC
TPFR
HGAG
EVFT
IPHG
HAFN
NTHS
DPTA
PWGT
RNCD
QLLI
LRCW
VDHR
SVSS
NVND
YMQT
DAHP
TCTE
TLTF
RKMQ
SQFS
ATTI
YARR
CHLE
AARC
WYGL
RAVK
MCGR
SYPC
QKLK
GNND
INAK
ASGA
WNTP
SGCI
WAYS
YVER
HPTN
DSCC
TQHP
FRRH
NETN
PAYI
KVKC
QCFD
EMPG
SNIN
NFYF
HSTI
RGPW
HTRI
YYCS
MRFC
PDWE
SPQS
IDTC
VNTH
ANCC
LWQE
RFER
VPTR
PWVT
QCEW
WPSF
AVLW
GKQV
QNLQ
TSMA
CSMC
CSGC
RQWF
KFQV
HPAL
ELGR
SFLR
QQLD
FFDS
TQNG
PRPF
LSTT
TVNW
WNRG
TGAM
CLFV
IVCG
REYR
LRSQ
DHTI
YELG
GMKT
NPPH
LIPA
CLWG
RMAR
APTK
GLNK
HQRS
HAVT
RPRV
DKNR
IRVE
PMPL
WADF
CGTG
CPNT
HGCK
KRLQ
TQGG
IMNT
PSHC
HWVP
YKRG
LSHQ
GRFP
RIVL
WALG
TVQM
RPEV
SNHL
WNGF
QPCT
GPPF
TSQC
PMTY

one-hybrid fitness for binding parS DNA, 0.617:
RNDC

one-hybrid fitness for binding parS DNA, 0.972:
RVHS

one-hybrid fitness for binding parS DNA, 0.223:
RCCP

one-hybrid fitness for binding parS DNA, 0.456:
RSFY

one-hybrid fitness for binding parS DNA, 0.428:
RHLY

one-hybrid fitness for binding parS DNA, 0.97:
RFSG

one-hybrid fitness for binding parS DNA, 0.451:
RVGN

one-hybrid fitness for binding parS DNA, 0.205:
IHKE
